# Experimental data published in PubChem BioAssay (NCI).
# “And” between values parts separate entries of the source, which are not always exact repeats. Equal values may be shown once.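 96-well plates; 48 h exposure; 5 concentrations. Endpoints by linear interpolation between flanking doses. Not reached: highest tested concentration assigned. The concentration for 50% growth inhibition is given as GI50. TGI is the concentration that stops growth completely.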
# Tested on: NCI-H322M lung
# Assay: DTP human tumour cell line panel, 48 h
SMILES,TGI,GI50
O=[P+](O)c1cc2ccccc2c2ccccc12,> 100 µM,–
CNC(=O)c1ccccc1[S+]1c2cccc3cccc(c23)C(=O)N1C (stereo not given),> 100 µM,–
Fc1cccc(CSc2ncnc3c2ncn3C2CCCS2)c1 (stereo not given),> 100 µM,–
O=CC(Br)C(Br)c1ccccc1 (stereo not given),32.6 µM,16.8 µM
O=C(O)C(C(=O)C(=O)C(C(=O)O)c1ccc(Cl)cc1)c1ccc(Cl)cc1 (stereo not given),15.5 µM,–
CSC1(SC)N2Cc3ccccc3N=C2C1(c1ccccc1)c1ccccc1,> 100 µM,–
COc1cc(F)cc([C@@H](CO)NC(=O)[C@@H](C)N2Cc3ccc(-c4nc(NC5CCOCC5)ncc4Cl)cc3C2=O)c1,97.5 µM,0.0589 µM
Cc1cc(C)c2c(=N)c3ccccc3n(CCCCCCn3c4ccccc4c(=N)c4c(C)cc(C)nc43)c2n1,3.26 µM,–
CN(C)CCCNc1cnc2cc3ccccc3cc2n1,88.4 µM,–
N#CCSc1c(-c2ccccc2)c(=O)n(-c2ccccc2)c(=S)n1-c1ccccc1,> 100 µM,–
O=C1C(Cl)=C(Nc2cccc(O)c2)C(=O)N1Cc1ccc(Cl)cc1,7.94 µM,2.73 µM
COC(=O)c1c(O)ccc2c1c1c(n2Cc2ccccc2OC)C(=O)c2ccccc2C1,> 100 µM,–
CC1(C)N=C(N)N=C(N)N1c1ccc(CCc2ccc(Cl)cc2S(=O)(=O)F)c(Cl)c1,> 100 µM,13.5 µM
Cn1c(/C=C(\C#N)c2cccc(C(F)(F)F)c2)nc2c(N3CCOCC3)nc(Cl)nc21,3.41 µM,1.61 µM
COC(=O)c1ccc(NC(=O)c2cc(OC)c(OC)c(OC)c2)cc1,> 100 µM,–
C=CCCC(On1c(-c2ccc(Cl)cc2)csc1=S)c1ccccc1 (stereo not given),> 100 µM,–
COc1ccc(N2C(N)=C(C#N)C(C#N)(C#N)C2c2cccc([N+](=O)[O-])c2)cc1 (stereo not given),32.7 µM,–
CCOc1ccccc1N1C(=O)C(=O)C(c2nc3ccccc3o2)/C(=N\N)C1=O (stereo not given),> 100 µM,–
CCOC(=O)C1=NN(c2ccc(Cl)cc2)C2=CC(C)=NN(C)C(=S)N21,> 100 µM,–
O=[N+]([O-])c1ccc2nc(/C=C(\O)c3ccccc3)c(/C=C(\O)c3ccccc3)nc2c1,> 100 µM,–

SMILES,TGI,GI50
Cc1ccc(S(=O)(=O)C2c3nc4ccccc4cc3-c3nc4ccccc4nc32)cc1 (stereo not given),> 100 µM,–
O=C(O)c1ccc([S-])cc1.[Au+].c1ccc(CN2[CH-]N(Cc3ccccc3)C(c3ccccc3)=C2c2ccccc2)cc1,1.72 µM,0.393 µM
NC(=S)N/N=C/c1ccc(O)cn1,434 µM and 835 µM,28.5 µM and 7.03 µM
O=C(CCc1ccc(O)c(O)c1)NCCc1ccc(O)c(O)c1,> 100 µM,–
S=c1nc2sc3c(c2c(Nc2ccc(Br)cc2)[nH]1)CCN(N1CCc2c(sc4nc(=S)[nH]c(Nc5ccc(Br)cc5)c24)C1)C3,> 50 µM,–
Cc1c(O)c(=O)ccn1CCc1c[nH]c2ccccc12,> 100 µM,–
CCOC(=O)C1=CC(C)(C(=O)OCC)Nc2c(nc(SC)n(C)c2=O)N1 (stereo not given),> 10 µM,–
CCCC(=O)Nc1cc(/C=C/C(=O)N2CC(CCl)c3c2cc([N+](=O)[O-])c2ccccc32)n(C)c1 (stereo not given),> 100 µM,–
C=CC[N+](CCO)(CCO)CCCCCCCCCCCCCCCCCC,23.8 µM,–
Clc1ccc(C(c2ccc(Cl)cc2)N2CCNCC2)cc1,8.49 µM,–
CC(O)c1cc2c(s1)C(=O)c1scc(C(C)O)c1C2=O (stereo not given),3.58 µM,–
CC(C)[NH-].CC(C)[NH-].O.O.[Cl][Pt+2][Cl],145 µM,32.6 µM
O=c1cc(-c2ccccc2)nc(/C=C(\O)c2ccncc2)n1-c1ccccc1,> 100 µM,–
Cc1cccc(Cl)c1NC(=O)c1cnc(Nc2cc(N3CCOCC3)cc(N3CCOCC3)c2)s1,1.79 µM,0.0426 µM
O=C(O)c1ccc2c3c(ncnc13)-c1ccccc1C2=O,5.56 µM,2.25 µM
COc1cc2c(cc1OC)-c1ccc3cc4c(cc3c1N(CCN(C)C)C2)OCO4,5.23 µM,1.61 µM
CC1=C(C(=O)Nc2ccc([N+](=O)[O-])cc2)C(c2ccccc2O)C(C(=O)Nc2ccc([N+](=O)[O-])cc2)=C(C)N1,85.1 µM,–
COc1ccc2c(c1)CC1(O)COc3cc(OC)ccc3C1O2 (stereo not given),> 100 µM,–
COc1cccc2c1-c1c(OC)cccc1SS2,> 100 µM,–
